From PubChem BioAssay AID493208 (National Center for Advancing Translational Sciences (NCATS), 2011)
The campaign covered roughly 44,000 compounds. About 340 (0.77%) were called active. Inconclusive results (about 5%) are left out. The call rests on the fitted dose curve; in most records, active means well fitted inhibition curve with a large enough effect; inconclusive means small, poorly fitted or top-dose-only effect; inactive means flat fitted curve, though single readings scatter. This is one part of the list.

assay: Acumen qHTS Assay for Inhibitors of the mTORC1 Signaling Pathway in MEF (Tsc2-/-, p53-/-) Cells: Sytravon; settings: phospho-rpS6 immunofluorescence/PI, 24 h; series mostly up to 38.3 µM; activity change, negative = inhibition: at the top concentration;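 further: plate controls were DMSO for no effect and rapamycin for full effect; nearly all actives have a fitted effect of over 50% in size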
How it was run: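 Tsc2-/-, p53-/- MEFs (empty-vector stable line) in DMEM + 10% FBS were treated with compounds 24 h at 37 degree Celsius, fixed, and immunostained for phospho-rpS6 (Alexa-488) with propidium iodide counterstain. Laser-scanning cytometry gave % positive cells, normalized against 7.5 nM rapamycin and DMSO.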

| Structure (SMILES) | activity change, negative = inhibition |
| --- | --- |
| CCn1c2ccccc2c2nnc(N3CCN(c4cc(C)ccc4C)CC3)nc21 | inactive: -9.56% |
| COc1ccc(N2CCN(S(=O)(=O)c3ccc4c(c3)CC(C)N4C(C)=O)CC2)cc1 (configuration not stated) | inactive: -9.22% |
| CCOc1ccccc1NC(=O)c1cc2c(Cl)nc3ccccc3c2s1 | inactive: -0.231% |
| COc1ccc(NC(=O)C2Cc3ccccc3N2C(=O)c2ccccc2)c(OC)c1 (configuration not stated) | inactive: 10.1% |
| CC1=C(C(=O)OC2CCCCCC2)C(c2c(F)cccc2Cl)CC(=O)N1 (configuration not stated) | inactive: -7.26% |
| Cc1ccc(Cl)cc1NC(=O)c1oc2c(c1C)-c1[nH]ncc1CC2 | inactive: -12.2% |
| COc1ccc(N(Cc2cccs2)C(=O)COc2cccc(Cl)c2)cc1 | inactive: -1.74% |
| CCN(CCCNC(=O)c1c(C)oc2ncn(CC(C)C)c(=O)c12)Cc1ccccc1 | inactive: -8.11% |
| Cn1c(=O)n(-c2ccc(F)c(Cl)c2)c(=O)c2sc3ccccc3c21 | inactive: 1.25% |
| CCOC(=O)c1c(Nc2ccc(C)cc2)nnc(-c2ccccc2)c1-c1ccccc1 | inactive: -0.458% |
| CCc1ccccc1NS(=O)(=O)c1ccc(OC)c2ncccc12 | inactive: -1.94% |
| COc1ccc(NCc2cc3cc4c(cc3n(CC(=O)Nc3ccc(F)cc3F)c2=O)OCO4)cc1 | inactive: -4.74% |
| CCC1CCCCN1C(=O)c1ccc2c(c1)N(Cc1cccc(Cl)c1)C(=O)c1ccccc1S2(=O)=O (configuration not stated) | inactive: -2.6% |
| COC(=O)CCSc1nc2sc3c(c2c(=O)n1Cc1ccccc1)CCC(C(C)(C)C)C3 (configuration not stated) | inactive: 18% |
| CCOC(=O)c1cnc2c(Cl)cccc2c1NCCN1CCOCC1 | inactive: -0.376% |
| Cc1ccc(Oc2c(C(F)(F)F)oc3c(CN4CCCCC4)c(O)ccc3c2=O)cc1 | inactive: 1.76% |
| CCOc1cccc2cc(-c3nc(-c4ccccc4C)no3)c(=O)oc12 | inactive: -4.1% |
| Cc1cc(F)ccc1NC(=O)CCS(=O)(=O)c1ccc2c(c1)NC(=O)CO2 | inactive: 8.39% |
| O=C(Nc1ccc(Cl)cc1)C1CCCN(S(=O)(=O)c2ccc3[nH]c(=O)ccc3c2)C1 (configuration not stated) | inactive: -2.28% |
| CCOC(=O)c1ccccc1NC(=O)CSc1cn(CC(=O)N2CCCCC2)c2ccccc12 | inactive: -17.9% |
| COc1cccc(CNC(=O)C2CCCN(S(=O)(=O)c3ccc4c(ccn4C)c3)C2)c1 (configuration not stated) | inactive: -5.09% |
| Cc1nc2c(-c3ccccc3)c(C)nn2c(C)c1CCC(=O)NC(C)c1ccccc1 (configuration not stated) | inactive: -23.4% |
| COc1ccc(NC(=O)CC2C(=O)N(c3ccc(F)cc3)C(=O)N2Cc2cccnc2)cc1 (configuration not stated) | inactive: -1.3% |
| CCOC(=O)c1cccc(NC(=O)c2oc3c(c2C)-c2[nH]ncc2CC3)c1 | inactive: -8.88% |
| CCCN(C(=O)c1cc2c(s1)-c1ccccc1OC2)c1ccccc1F | inactive: -1.11% |

| Structure (SMILES) | activity change, negative = inhibition |
| --- | --- |
| CCC(C(=O)Nc1ccc(C(=O)OC)cc1)n1c(=O)c(-c2ccccc2NC(C)=O)nc2ccccc21 (configuration not stated) | inactive: -9.53% |
| CCc1ccccc1NS(=O)(=O)c1ccc2[nH]cc(C(=O)N3CCCCC3)c(=O)c2c1 | inactive: 4.97% |
| COc1cc(CN(C(=O)Nc2ccccc2)c2ccccn2)cc(OC)c1OC | inactive: -0.667% |
| COc1ccc(Cl)cc1NC(=O)c1ccc2nc(Cc3ccccc3)oc2c1 | inactive: 4.75% |
| CCCC(=O)Nc1cc(C)c(O)c(-c2nc3ncccc3o2)c1 | inactive: 0.968% |
| Cc1ccc(-n2nc(C(=O)N3CCN(c4cc(Cl)ccc4C)CC3)c(=O)n(C)c2=O)cc1 | inactive: -6.34% |
| CCc1ccc(C(=O)c2cn(CC(=O)Nc3ccc(F)c(F)c3)c3cc(OC)c(OC)cc3c2=O)cc1 | inactive: 3.6% |
| CCCCNC(=O)C1CCCN(Cc2nc(-c3ccc(Cl)cc3)oc2C)C1 (configuration not stated) | inactive: -10.6% |
| COc1cc(NC(=O)CCn2c(-c3ccccc3)cc(C(C)=O)c2C)cc(OC)c1 | inactive: -0.645% |
| Cc1cc(C)c(NC(=O)CSc2ccnc(=O)[nH]2)c(C)c1 | inactive: -0.0925% |
| COc1ccc(NC(=O)C(NS(=O)(=O)c2ccc3c(c2)CCCC(=O)N3)C(C)C)c(OC)c1 (configuration not stated) | inactive: 3% |
| Cc1cccc(CNC(=O)c2oc3c(c2C)-c2nn(Cc4ccccc4Cl)cc2CC3)c1 | inactive: -3.17% |
| Cc1c(Cl)cccc1NC(=O)CSc1ncnc2c1sc1ccccc12 | inactive: 7.42% |
| Cc1cc(OCC(=O)Nc2ccc(-c3nc4cc(Cl)ccc4o3)cc2)cc(C)c1Cl | inactive: 4.4% |
| CCc1ccc(C2CC(=O)c3c([nH]c(C(=O)OCC4CCCCC4)c3C)C2)cc1 (configuration not stated) | inactive: -3.62% |
| O=C(COc1ccccc1)NCc1ccc2c(c1)CCN2C(=O)c1ccc(F)cc1 | inactive: -10.6% |
| CCOc1ccc(NC(=O)C(=O)NCCc2csc(-c3ccc(F)cc3)n2)cc1 | inactive: 0.0539% |
| CCc1cccc(NC(=O)Nc2ccc3c(c2)N(C)C(=O)c2ccccc2S3)c1 | inactive: -10.3% |
| c1ccc(-n2ncc3c(NC4CCCC4)ncnc32)cc1 | inactive: 0% |
| COc1ccc(NS(=O)(=O)c2cc3[nH]c(=O)c(=O)[nH]c3cc2C)cc1Cl | inactive: -0.75% |
| Cn1cc(S(=O)(=O)N2CCCCCC2)cc1C(=O)N1CCN(c2ccc(F)cc2)CC1 | inactive: 2.15% |
| CCC(=O)N1CCc2cc(Br)cc(S(=O)(=O)CCC(=O)NCCc3ccc(OC)c(OC)c3)c21 | inactive: 0% |
| CCOc1ccc(/C=C/c2nc(C#N)c(N3CCN(c4ccc(OC)cc4)CC3)o2)cc1 | inactive: 2.95% |
| Cc1ccc(NC(=O)Cc2c(C(=O)O)c(C)cn2C)cc1Cl | inactive: -1.8% |
| CC(C)OCCCn1c(SCc2ccccc2C#N)nc2c(sc3ccccc32)c1=O | inactive: -0.155% |

| Structure (SMILES) | activity change, negative = inhibition |
| --- | --- |
| CN(C(=O)C1CCCN(c2ncnc3c2nc2n3CCCCC2)C1)c1ccccc1F (configuration not stated) | inactive: 0.191% |
| CCN(CC)CC(C)CNC(=O)CN1C(=O)CSc2ccc(S(=O)(=O)N3CCOCC3)cc21 (configuration not stated) | inactive: -9.19% |
| COc1cc(OC)c(NC(=O)CN2C(=O)CCn3nc(-c4cccn4C)cc32)cc1Cl | inactive: -1.23% |
| CC(C)c1ccc(S(=O)(=O)c2nnn3c2nc(NCCc2ccccc2)c2sccc23)cc1 | inactive: -8.14% |
| CC(CCc1ccccc1)NC(=O)Cn1ncc2c3ccccc3n(Cc3ccc(F)cc3)c2c1=O (configuration not stated) | inactive: 0.498% |
| CCCn1c(=O)c2sccc2n2c(CCCC(=O)NCCc3ccc(Cl)cc3)nnc12 | inactive: 1.52% |
| Cc1ccc(CNC(=O)c2cc3sccc3n2Cc2ccc(Cl)cc2)cc1 | inactive: -0.894% |
| CC(=O)Nc1ccc(S(=O)(=O)NCC2CCC(C(=O)NCCc3ccccc3)CC2)cc1 (configuration not stated) | inactive: -2.04% |
| Cc1nn(C(=O)c2cccc([N+](=O)[O-])c2C)c(C)c1S(=O)(=O)N1CCOCC1 | inactive: -4.51% |
| Cc1ccc(NC(=O)CC(C)S(=O)(=O)c2ccc3c(c2)NC(=O)CO3)c(C)c1 (configuration not stated) | inactive: -8.66% |
| COc1cc(-c2ccno2)ccc1S(=O)(=O)N1CCN(c2cc(C)ccc2C)CC1 | inactive: -0.874% |
| COCC(=O)Oc1c(Sc2ccc(C)cc2)c(C)nn1C(C)(C)C | inactive: 5.09% |
| COc1cccc(N2CC(NC(=O)C(c3ccccc3)c3ccccc3)CC2=O)c1 (configuration not stated) | inactive: -0.908% |
| Cc1nc2nncn2c(N2CCN(c3ccccc3)CC2)c1C | inactive: 3.32% |
| COc1ccccc1/C=C/c1nc(C#N)c(N2CCCCC2)o1 | inactive: -21.9% |
| Cc1ccc2nc(-c3ccsc3)c(Nc3ccccc3C)n2c1 | inactive: -25.3% |
| O=C(NCc1ccc(F)cc1)c1ccc(CSCc2cccc(Cl)c2)o1 | inactive: -2.85% |
| COCCNC(=O)Cc1ccc(NC(=O)N2CCCCc3ccccc32)cc1 | inactive: 0% |
| Cn1cc(CN(C(=O)Nc2ccc(Cl)c(Cl)c2)C2CCCCC2)c2ccccc21 | inactive: -8.76% |
| COc1ccc(-n2c(/C=C/c3ccccc3F)nc3cc(OC)c(OC)cc3c2=O)cc1Cl | inactive: 4.59% |
| Cc1ccccc1Cn1c(C(=O)O)c(CNCc2cccc(F)c2)c2ccccc21 | inactive: 3.21% |
| COC(=O)c1scc(-c2ccccc2)c1S(=O)(=O)Nc1ccccc1 | inactive: -16.4% |
| Cc1ccc(N2CC(NC(=O)/C=C\c3ccc4c(c3)OCO4)CC2=O)cc1C (configuration not stated) | inactive: -2.06% |
| O=C1c2ccccc2C(=O)C1(c1ccccc1)N1CCN(c2cccc(Cl)c2)CC1 | inactive: -0.126% |
| CCN(CC)C(=O)C1CCN(S(=O)(=O)c2ccc3c(c2)CCCN3C(C)=O)CC1 | inactive: -1.5% |

| Structure (SMILES) | activity change, negative = inhibition |
| --- | --- |
| Cc1ccc(-c2cc(C(F)(F)F)n3nc(C(=O)Nc4ccc(Cl)cc4Cl)cc3n2)cc1 | inactive: -5.66% |
| Cc1ccc(NC(=O)CSc2ncc3c(n2)-c2ccccc2N(Cc2cccc(F)c2)S3(=O)=O)cc1F | inactive: -2.56% |
| CC1CN(C(=O)Nc2ccc(C(=O)NCCc3ccccc3)cc2)c2ccccc2S1 (configuration not stated) | inactive: -6.13% |
| CCOc1cc(-c2ccc(OC(=O)c3ccccc3F)cc2)cc(=O)c2c(C)oc(C)c12 | inactive: -4.39% |
| O=C(CSc1nccn1Cc1ccccc1)NCc1ccc(F)cc1 | inactive: -1.25% |
| CCOc1ccc(C(=O)Nc2cc(-c3nc4ccccc4o3)ccc2C)cc1Cl | inactive: -1.35% |
| Cc1cc(C)nc(NS(=O)(=O)c2ccc(NC(=O)COc3ccc(Cl)cc3C)cc2)n1 | inactive: 0.706% |
| CCN(Cc1ccccc1)C(=O)c1c(C)oc2ncn(C)c(=O)c12 | inactive: -11.6% |
| COc1ccc(-n2nc3ccc(NC(=O)c4ccc(-c5cc(Cl)ccc5Cl)o4)cc3n2)cc1 | inactive: 1.03% |
| COc1ccc(-n2ccnc(NCc3ccc(Cl)cc3)c2=O)cc1 | inactive: -2.28% |
| COc1ccc(NC(=O)CCc2nnc3n(C)c(=O)c4sccc4n23)cc1 | inactive: -16.3% |
| C=CCc1ccccc1OCCSc1nc(-c2ccc(C(C)(C)C)cc2)nc2cc(=O)[nH]n12 | inactive: -12.7% |
| Clc1cccc(N2CCN(c3nc4ccccc4n4cnnc34)CC2)c1 | inactive: -15% |
| COc1cccc(NC(=O)C2CCCN(S(=O)(=O)c3c(C)[nH]c(=O)[nH]c3=O)C2)c1 (configuration not stated) | inactive: 1.11% |
| Cc1cc(C)cc(NC(=O)CCC(=O)N2Cc3ccccc3Oc3ncccc32)c1 | inactive: -3.54% |
| CCN(c1cc(C)cc(C)c1)S(=O)(=O)c1nnc(NC(=O)C2CCCCC2)s1 | inactive: -0.818% |
| O=C(Nc1ccc(Br)c2cccnc12)c1cccc2ccccc12 | inactive: -5.46% |
| Cc1c(Cl)cccc1-c1ccc(CNc2ccc3[nH]c(=O)[nH]c3c2)o1 | inactive: -9.07% |
| Cc1ccc(CCNC(=O)c2cc3sccc3n2Cc2ccc(C)cc2)cc1 | inactive: 3.82% |
| CCCc1cnc2c(c1SCC(=O)N(C)c1ccccc1)c(=O)n(C)c(=O)n2C | inactive: -6.87% |
| COc1cc2ccccc2cc1C(=O)Nc1ccc2oc(-c3ccc(F)cc3)nc2c1 | inactive: 7.03% |
| CCc1ccccc1NC(=O)c1nnn(-c2ccc(F)cc2)c1C | inactive: -18.8% |
